Results taken from publication PMC11999613, “Differential association of EphA2 intracellular regions in biased signaling” (The Journal of Biological Chemistry, 2025).

B1: EphA2 ΔSAM fused at the C terminus to a fluorescent protein via a flexible (GGS)5 linker (receptor)
chain: [left out - about 500 residues]IGGVAVGVVLLLVLAGVGFFIHRRRKNQRARQSPEDVYFSKSEQLKPLKTYVDPHTYEDPNQAVLKFTTEIHPSCVTRQKVIGAGEFGEVYKGMLKTSSGKKEVPVAIKTLKAGYTEKQRVDFLGEAGIMGQFSHHNIIRLEGVISKYKPMMIITEYMENGALDKFLREKDGEFSVLQLVGMLRGIAAGMKYLANMNYVHRDLAARNILVNSNLVCKVSDFGLSRVLEDDPEATYTTSGGKIPIRWTAPEAISYRKFTSASDVWSFGIVMWEVMTYGERPYWELSNHEVMKAINDGFRLPTPMDCPSAIYQLMMQCWQQERARRPKFADIVSILDKLIRAPDSLKTLADFDPRVSIRLPSTSGSVGIPI
notes: EphA2 receptor tyrosine kinase lacking […], which include the SAM domain ([…]); FIF used the eYFP form alone; FSI-FRET used cells co-transfected with the mTurquoise (donor) and eYFP (acceptor) forms; Vector pcDNA3.1(+); also called EphA2 ΔSAM-eYFP; EphA2 ΔSAM-mTurquoise; source: HEK293T, transiently transfected, in the plasma membrane of the cells; not shown: eYFP or mTurquoise (after a 15 amino …)
B2: EphA2 ΔCyt fused at the C terminus to a fluorescent protein via a flexible (GGS)5 linker (domain or fragment)
chain: not shown
notes: EphA2 receptor tyrosine kinase truncated at amino acid 568 (lacks […]); keeps the extracellular region, the transmembrane helix ([…]) and a polar, basic stretch (559-568); FIF used the eYFP form alone; FSI-FRET used cells co-transfected with the mTurquoise (donor) and eYFP (acceptor) forms; Vector pcDNA3.1(+); also called EphA2 ΔCyt-eYFP; EphA2 ΔCyt-mTurquoise; source: HEK293T, transiently …

Legend:
[1] = target: the molecule itself; experiment: fluorescence intensity fluctuation (FIF) spectrometry; no ligand; eYFP-tagged EphA2 variant in the plasma membrane of live, serum-starved HEK293T cells; confocal imaging; molecular brightness compared with a dimer control (TrkA + NGF)
[2] = target: the molecule itself; experiment: fluorescence intensity fluctuation (FIF) spectrometry; with 200 nM m-ephrinA1; eYFP-tagged EphA2 variant in the plasma membrane of live, serum-starved HEK293T cells; confocal imaging; molecular brightness compared with a dimer control (TrkA + NGF)

| Protein | stoichiometry N [1] | stoichiometry N [2] |
| --- | --- | --- |
| B1 | 2 | > 2 |
| B2 | 2 | > 2 |
